Screen size: about 16,000 compounds; about 120 (0.75%) were called active. Inconclusive results (about 4%) are left out. The call rests on the fitted dose curve; in most records, active means well fitted inhibition curve with a large enough effect; inconclusive means small, poorly fitted or top-dose-only effect; inactive means no such curve, though single readings can be large or run the other way. The list shows a part of the results.

Experimental findings from PubChem BioAssay AID1645882 (National Center for Advancing Translational Sciences (NCATS), 2021) are described below.

This assay deals with Rap guanine nucleotide exchange factor 3 (Homo sapiens) (UniProt O95398). The assay is described as follows: Validation qHTS for antagonist of cAMP-regulated guanine nucleotide exchange factor 3 (EPAC1).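 Further: plate controls were DMSO for no effect and ATA control for full effect; nearly all actives have a fitted effect of over 75% in size.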 The conditions noted are these: EPAC1 Rap1B-BODIPY-GDP exchange, fluorescence; series mostly up to 150 µM; activity change, negative = inhibition: at the top concentration. A digest of the protocol: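 Nucleotide exchange followed as fluorescence loss when BODIPY-GDP leaves Rap1B (480 nm excitation, 540 nm emission), read at 5 min intervals over 30 min. Reaction: 100 nM EPAC1, 250 nM RAP1B-BODIPY-GDP, 50 uM GDP; ATA and DMSO define normalization.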
UniProt O95398, sequence (O95398 whole entry, looked up): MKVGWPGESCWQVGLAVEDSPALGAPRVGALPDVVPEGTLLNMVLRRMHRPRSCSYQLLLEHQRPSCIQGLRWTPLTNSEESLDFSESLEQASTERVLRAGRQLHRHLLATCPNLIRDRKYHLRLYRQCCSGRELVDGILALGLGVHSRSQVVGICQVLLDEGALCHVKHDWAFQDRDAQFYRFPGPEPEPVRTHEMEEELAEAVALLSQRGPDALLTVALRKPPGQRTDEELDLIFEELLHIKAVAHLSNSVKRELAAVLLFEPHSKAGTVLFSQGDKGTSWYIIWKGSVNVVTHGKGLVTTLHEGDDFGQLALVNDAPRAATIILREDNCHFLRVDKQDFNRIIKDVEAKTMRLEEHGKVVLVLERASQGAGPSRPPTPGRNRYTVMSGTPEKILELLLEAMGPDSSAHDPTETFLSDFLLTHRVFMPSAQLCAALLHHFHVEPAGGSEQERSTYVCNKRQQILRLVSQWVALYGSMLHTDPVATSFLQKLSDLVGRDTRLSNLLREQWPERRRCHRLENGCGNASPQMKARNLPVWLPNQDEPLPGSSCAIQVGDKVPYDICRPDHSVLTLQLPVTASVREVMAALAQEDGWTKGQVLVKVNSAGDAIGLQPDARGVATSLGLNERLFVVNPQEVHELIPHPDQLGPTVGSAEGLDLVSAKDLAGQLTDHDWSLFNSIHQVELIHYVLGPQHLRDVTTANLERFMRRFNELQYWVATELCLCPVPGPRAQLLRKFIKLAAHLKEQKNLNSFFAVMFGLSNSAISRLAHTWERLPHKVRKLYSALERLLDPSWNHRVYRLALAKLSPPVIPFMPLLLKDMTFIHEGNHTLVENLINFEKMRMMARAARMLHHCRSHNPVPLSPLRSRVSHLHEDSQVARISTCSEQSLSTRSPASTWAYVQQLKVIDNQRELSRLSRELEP
As for `COCCn1c(=O)c(-c2ccccc2)nc2cnc(Nc3ccccc3)nc21`, the “activity change, negative = inhibition” value was inactive: 19.2%. To `COCCn1c(=O)cnc2cnc(OCc3ccccc3)nc21` belongs inactive: 9.11%; to `O=c1c(-c2cccs2)nc2cncnc2n1-c1ccccc1`, inactive: -8.23%. As to `CCCCN(CCCC)CCC(O)c1cc2c(Cl)cc(Cl)cc2c2cc(C(F)(F)F)ccc12` (stereo not drawn), the “activity change, negative = inhibition” value is inactive: -16.1% [at 75.8 µM]. On to `C#C[C@]1(O)CC[C@H]2[C@@H]3CCc4cc(O)ccc4[C@H]3CC[C@@]21C`, for which the “activity change, negative = inhibition” value is inactive: 4.15%. To `CC(=O)N[C@@H](C)C(=O)NCC1Cc2cccc(-c3ccccc3C(F)(F)F)c2O1` (stereo partly drawn) belongs inactive: 13.1%; to `CC(=O)OC1CC2C(C)(C)C=CC(=O)[C@@]2(C)C2CC[C@@]3(C)C(c4ccoc4)OC(=O)C4OC43[C@]12C` (stereo partly drawn), inactive: -8.97%; to `CCNc1ncc2nc(-c3ccccc3)c(=O)n(-c3ccc(OC)cc3)c2n1`, inactive: 18.3%.

For the compound `Cc1ccccc1C1(CC(=O)N2CCCCC2c2cccnc2)CC(=O)N(C2CCCC2)C1=O` (stereo not drawn), the “activity change, negative = inhibition” value is inactive: -21.5%. Take `C=CCCCCCCCCCCCC(O)CC(O)COC(C)=O` (stereo not drawn) (tested in a mixture with another compound): the “activity change, negative = inhibition” value is inactive: -29.3%. For `N#Cc1ccc(CN2CCCC3(CCN(C(=O)c4cnccn4)CC3)C2)cc1`, the “activity change, negative = inhibition” value is inactive: 8.39%. On to `CC(C(=O)O)c1cccc(C(=O)c2ccccc2)c1` (stereo not drawn), for which the activity change, negative = inhibition result is “inactive”. `Nc1nc(N)c2nc(CNc3ccc(C(=O)N[C@@H](CCC(=O)O)C(=O)O)cc3)cnc2n1`: the “activity change, negative = inhibition” value was inactive: 13.1%. As to `CC1(C)OC2C(CO)OC(n3cnc4c(=O)[nH]cnc43)C2O1` (stereo not drawn), the “activity change, negative = inhibition” value is inactive: 18.8%. In the case of `COC(=O)N1CCC2(CC1)CCN(C(c1ccccc1)c1ccccc1)CC2`, the “activity change, negative = inhibition” value is inactive: 4.62%. For the compound `CC(=O)Nc1ccc(/C=N/NC(N)=S)cc1`, the activity change, negative = inhibition result is “inactive”. Take `O=C(O)Cc1ccc(OCCNC[C@H](O)c2ccccc2)cc1`: the “activity change, negative = inhibition” value was inactive: 28.3%. For `COc1ccccc1-c1cncnc1NCc1ccccc1`, the “activity change, negative = inhibition” value is inactive: 0.645%.

`COc1ccccc1N1CCN(c2nc(CNC(=O)c3cc(C)oc3C)nc3ccccc23)CC1`: the “activity change, negative = inhibition” value was inactive: 13.7%. With `O=C(NCC1Cc2cccc(-c3ncccn3)c2O1)c1cccc(-c2ccccc2F)c1` (stereo not drawn), the “activity change, negative = inhibition” value is inactive: -6.89%.

Turning to `Cn1c(=O)cnc2cnc(Nc3ccccc3)nc21`, the “activity change, negative = inhibition” value was inactive: 11.8%.

As for `COc1cccc(Nc2ncc3nc(C)c(=O)n(CCc4ccccc4)c3n2)c1`, the “activity change, negative = inhibition” value is inactive: 10.9%. In the case of `COc1ccccc1CNc1cc(-c2ccccc2C)ncn1`, the “activity change, negative = inhibition” value was inactive: -6.35%.

As for `O=C(c1ccncc1)N1CCC2(CC1)CCN(C(c1ccccc1)c1ccccc1)CC2`, the “activity change, negative = inhibition” value is inactive: 10.5%. Consider `CC1O[C@@H](O[C@H]2C(Oc3cc(O)c4c(c3)OC(c3ccc(O)cc3)CC4=O)OC(CO)C(O)C2O)C(O)C(O)C1O` (stereo partly drawn), for which the “activity change, negative = inhibition” value was inactive: 18%. For `CCNc1ncc2nc(-c3ccc(Cl)cc3)c(=O)n(Cc3ccc(F)cc3)c2n1`, the “activity change, negative = inhibition” value was inactive: 19%. On to `CCN1CCCC1CNC(=O)c1cnn(-c2nccc(-c3cc(OC)ccc3OC)n2)c1C` (stereo not drawn), for which the “activity change, negative = inhibition” value was inactive: 4.08%.

For the compound `CN(C)C(=O)c1ccc(-c2ccc3ncnc(NCc4cccnc4)c3c2)cc1`, the “activity change, negative = inhibition” value was inactive: 15.8%. As for `N#Cc1cccc(NC(=O)N2CCCC3(CCN(C(=O)c4ccco4)CC3)C2)c1`, the “activity change, negative = inhibition” value was inactive: 43%. `COCCNc1ncnc2ccc(-c3cccc(OC)c3)cc12`: the “activity change, negative = inhibition” value is inactive: -0.812%. The same measure for `CC(O)COc1ccccc1` (stereo not drawn): inactive: -6.99%; for `O=C1O/C(=C/Br)CCC1c1cccc2ccccc12` (stereo not drawn): inactive: -7.67% [at 75.8 µM]. For `O=CN1CCCN(C(=O)c2cc(NC(=O)c3ccccc3)cc3ncn(C4CCCC4)c23)CC1`, the “activity change, negative = inhibition” value is inactive: -1.61%. Consider `COc1ccc(CCNc2ncnc3sc(C(=O)N4CCCC4)c(C)c23)cc1OC`, for which the “activity change, negative = inhibition” value was inactive: 6.93%.

In the case of `O=C(Nc1ccc(C(F)(F)F)cc1[N+](=O)[O-])O[C@H]1[C@H](Cc2ccccc2)NS(=O)(=O)[C@H]2C[C@@H]3C=C[C@]12O3`, the “activity change, negative = inhibition” value was inactive: 0.549%.

Consider `CN1CCN(c2ncc3nc(-c4cc(F)cc(F)c4)c(=O)n(CCc4ccccc4)c3n2)CC1`, for which the “activity change, negative = inhibition” value was inactive: 13.7%. In the case of `COC(=O)N1CCC[C@@]2(CCN(Cc3nccs3)C2)C1`, the “activity change, negative = inhibition” value was inactive: 31.6%.

In the case of `CC(C)NC(=O)N1CC2(CCN(C(=O)c3ccncc3)CC2)C1`, the “activity change, negative = inhibition” value is inactive: 29.4%. `CCC1CN(CCNC(=O)c2ccccc2-n2cccn2)Cc2cc(OC)ccc2O1` (stereo not drawn): the “activity change, negative = inhibition” value was inactive: 21.6%.

In the case of `Cc1ccc(CN2C[C@@H](Sc3nc(C)cc(C)n3)C[C@H]2C(=O)N2CCN(c3ccccc3F)CC2)cc1`, the “activity change, negative = inhibition” value was inactive: -6.82%. To `COc1ccc(CN2[C@@H](CC(=O)O)c3cc(C(F)(F)F)ccc3S2(=O)=O)cc1` belongs inactive: -8.45%. The same measure for `Cc1cc(C)c(NC(=O)CN(CC(=O)O)CC(=O)O)c(C)c1Br`: inactive: 6.91%. The same measure for `CO/S(=N\S(=O)(=O)c1ccc(Cl)cc1)c1ccc([N+](=O)[O-])cc1` (stereo not drawn): inactive: 4.9% [at 75.8 µM]. `COc1ccc(-c2c(-c3ccc4c(c3)OCO4)noc2C)cn1`: the “activity change, negative = inhibition” value is inactive: -4.31%.

For `O=C(c1csnn1)N1CCC2(CC1)CN(c1ccccc1)C2`, the “activity change, negative = inhibition” value was inactive: 12.3%. The same measure for `CC1=C(/C=C/C(C)=C/C=C/C(C)=C/C=C/C=C(C)/C=C/C=C(C)/C=C/C2=C(C)C(=O)CCC2(C)C)C(C)(C)CCC1=O`: inactive: 6.97%; for `C=C1CC[C@H](O)C/C1=C/C=C1\CCC[C@]2(C)C([C@H](C)CCCC(C)(C)O)CC[C@@H]12` (stereo partly drawn): “inactive”.

Take `CC(C)(S)C(=O)N[C@@H](CS)C(=O)O`: the activity change, negative = inhibition entry was “inactive”. On to `COc1ncc2nc(C)c(=O)n(Cc3cccs3)c2n1`, for which the “activity change, negative = inhibition” value was inactive: 18.4%. Consider `COc1cc(=O)n2c(c1C(=O)NCc1nonc1C)CCN(C(=O)c1cccc(C)c1C)CC2`, for which the “activity change, negative = inhibition” value is inactive: 1.64%.

Consider `CC(=O)OC1C[C@]2(C)[C@@H](CC(O)C3[C@]4(C)CCC(O)C(C)[C@@H]4CC[C@]32C)/C1=C(/CCC=C(C)C)C(=O)O` (stereo partly drawn), for which the “activity change, negative = inhibition” value is inactive: 19%. `COc1ccc(-c2oc3ccc(C)cc3c(=O)c2O)cc1OC`: the “activity change, negative = inhibition” value is inactive: 5.13%. On to `CCNc1ncc2nc(-c3cn(C)c4ccccc34)c(=O)n(Cc3ccc(F)cc3)c2n1`, for which the “activity change, negative = inhibition” value was inactive: -2.55%. For the compound `NCC(O)(CS(=O)(=O)O)c1ccc(Cl)cc1` (stereo not drawn), the “activity change, negative = inhibition” value was inactive: -10.2% [at 75.8 µM]. `C[C@@H](N)C1CCC(C(=O)Nc2ccncc2)CC1` (stereo partly drawn): the activity change, negative = inhibition result was “inactive”.

As to `CC[C@H](NC(=O)c1c(C)c(-c2ccccc2)nc2ccccc12)c1ccccc1`, the “activity change, negative = inhibition” value was inactive: 15.2% [at 75.8 µM]. As for `CCOC(=O)c1ncn2c1CN(C)C(=O)c1cc(F)ccc1-2`, the activity change, negative = inhibition entry was “inactive”. As to `O=NN(CCCl)C(=O)NCCCl`, the activity change, negative = inhibition result was “inactive”.

For the compound `CN1[C@@H]2CC[C@H]1CC(OC(=O)c1c[nH]c3ccccc13)C2` (stereo partly drawn), the “activity change, negative = inhibition” value was inactive: 3.58%.

For the compound `CCCCCCCCCCCCCCCCCCOCC(COP(=O)([O-])OCC[N+](C)(C)C)OC` (stereo not drawn), the “activity change, negative = inhibition” value was inactive: 3.62%.

Consider `COc1ccccc1CNc1cc(-c2cccc(C#N)c2)ncn1`, for which the “activity change, negative = inhibition” value is inactive: 7.87%. As for `Cc1cc(C)nc(S[C@H]2C[C@@H](C(=O)N3CCN(c4ccccc4F)CC3)N(Cc3ccccc3C(F)(F)F)C2)n1`, the “activity change, negative = inhibition” value was inactive: -3.21%. In the case of `OC1C2COC(O2)[C@H](O)C1O` (stereo partly drawn), the “activity change, negative = inhibition” value was inactive: 8.9%.
